Inconclusive means that the source gave no clear call. Such entries were picked first, then a sample of the others. Potencies of inconclusive entries are doubtful fits and often do not repeat. The source made the active and inactive calls. Calls follow the shape of the dose curve; as a rule, active = well fitted inhibition curve with a large enough effect; inconclusive = small, poorly fitted or top-dose-only effect; inactive = no such curve, though single readings can be large or run the other way.
Assay: qHTS to identify inhibitors of the type 1 interferon - major histocompatibility complex class I in skeletal muscle: primary screen against the NCATS Mechanism Interrogation Plate v5.0 (MIPE) Libary (AID 1347411); also: nearly all actives have a fitted effect of over 65% in size;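 as to activity change, negative = inhibition: plate controls were vehicle for no effect and reference inhibitor for full effect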
Settings: iHSKM cells + IFN-b, HiBiT-tagged MHC-I luminescence, 24 h; activity change, negative = inhibition: at 45.8 µM (top of the series)
Source text: Assay Submitter (PI): Travis B. Kinder Ph.D. & James Inglese Ph.D.
Assay Development and Screening Technology Laboratory (ADST)
National Center for Advancing Translational Sciences (NCATS), Rockville, MD
National Institute of Health (NIH), Bethesda, Maryland
Idiopathic inflammatory myopathies, collectively referred to as myositis, are a group of rare autoimmune diseases characterized by skeletal muscle inflammation, weakness, and usually accompanied by systemic pathologies of the skin, lungs, or vasculature. Current immunosuppressive therapies and glucocorticoids are often not curative and are accompanied by harsh side effects, especially in children with juvenile myositis. We initiated a drug repurposing and development program to identify more targeted, less toxic therapeutics to treat myositis. Although its cause is not known, muscle from a subset of patients have an abundance of the inflammatory type 1 interferon (IFN) and a down-stream product major histocompatibility complex class I (MHC class I), which are both thought to contribute to damage and weakness. We conducted quantitative high throughput screening on 6,576 compounds (4,679 unique) through a series of cell-based assays to identify those that inhibit the IFN-stimulated expression of MHC class I in muscle precursor cells (myoblasts). The compound identification and evaluation strategy utilized a primary screen with reporter-tagged MHC class I in genome-engineered myoblasts, ATP content counter screen for viability, HLA-ABC immunofluorescence secondary screen, and HLA-B RT-qPCR tertiary screen.
The primary screen utilized CRISPR/Cas9 genome-engineering of immortalized human myoblasts, C25cl48, where a pro-luminescent reporter HiBit was fused to the C-terminus of endogenous MHC class I allele HLA-B*08:01 (HLA-B HiBit myoblasts). HiBit is an 11 amino acid fragment of NanoLuc luminescent reporter (Promega Corporation), and when complexed to the larger LgBit fragment, the reconstituted enzyme produces light in the presence of furimazine substrate (Schwinn et al., 2018). Briefly, HLA-B HiBit myoblasts were plated into 1536-well plates, treated with 4.0 ng/ml human IFN-beta and 2,480 compounds from the NCATS Mechanism Interrogation Plate v5.0 (MIPE5.0) in an 11-point, 1:3 titration with a high final concentration of 46 uM. After 24 hrs of treatment, cells were assayed by Nano-Glo HiBiT Lytic Detection System (Promega) and luminescence measured by a ViewLux 1430 Ultra HTS (Perkin Elmer).
Schwinn MK, Machleidt T, Zimmerman K, Eggers CT, Dixon AS, Hurst R, Hall MP, Encell LP, Binkowski BF, Wood K V. 2018. CRISPR-Mediated Tagging of Endogenous Proteins with a Luminescent Peptide. ACS Chem Biol 13:467-474. doi:10.1021/acschembio.7b00549
PROTOCOL TABLE (as described by Inglese et al., 2007)
SEQUENCE No. (e.g., 1, 2, 3, etc.); […] (e.g., Cells, Incubation, Reagent, etc.); VALUE; DESCRIPTION
1a; Cells; 5 uL; Use a Multidrop Combi (Thermo Scientific) to seed 300 cells/well into 24 Greiner 1536 well white/solid bottom, high base, TC plates in 5 ul/well of iHSKM growth medium (GM) without dexamethasone into columns 1+2. Add metal lids with gas-exchange holes
1b; Cells; 5 uL; Use a Multidrop Combi (Thermo Scientific) to seed 300 cells/well into 24 Greiner 1536 well white/solid bottom, high base, TC plates in 5 ul/well of iHSKM GM without dexamethasone + 4 ng/ml IFN-b into columns 3 - 48. Add metal lids with gas-exchange holes
2; Incubate; 1 hr; Incubate at 37 C, 5% CO2, 95% RH
3; Compounds; 23 nl; Use Pin Tool (Wako) to transfer DMSO control, ruxolitinib IFN-b inhibitor control [High Concentration = 80 uM final, 16-pt, 1:2 in duplicate], and library compounds in DMSO
4; Incubate; 24 hrs; Incubate at 37 C, 5% CO2, 95% RH
5; Dispense; 2.5 ul; Use BioRAPTR FRD (Beckman Coulter) to add HiBit lytic reagent
6; Incubate; 10 min; Incubate in the dark at ambient temperature for lysis
7; Detector; 5 sec; Measure luminescence with ViewLux 1430 Ultra HTS (Perkin Elmer). […]
Potency is read from the fitted curve at half-maximal effect; tags tell the direction and shape of the fitted curve.

Row | Compound | Potency | activity change, negative = inhibition
1 | CC(C)C(=O)OCC(=O)[C@@]12O[C@H](C3CCCCC3)O[C@@H]1C[C@H]1[C@@H]3CCC4=CC(=O)C=C[C@]4(C)[C@H]3[C@@H](O)C[C@@]12C | inconclusive: 0.165 µM [inhibitor, partial curve, poor fit] | –
2 | CNC(=O)c1ccccc1Nc1nc(Nc2ccc(N3CCOCC3)cc2OC)ncc1Cl | inconclusive: 0.523 µM [inhibitor, full curve] | –
3 | Cc1cc2c(C(C)C)c(O)c(O)c(C=O)c2c(O)c1-c1c(C)cc2c(C(C)C)c(O)c(O)c(C=O)c2c1O | active: 23.4 µM | –
4 | CN[C@H]1CCc2cc(OC)c(OC)c(OC)c2-c2ccc(OC)c(=O)cc21 | inconclusive: 0.208 µM [inhibitor, full curve] | –
5 | CN1CC[C@@H](c2c(O)cc(O)c3c(=O)cc(-c4ccccc4Cl)oc23)[C@@H](O)C1 | active: 0.739 µM | –
6 | O=C(CCCCCCC(=O)Nc1ccc([C@H]2O[C@@H](CSc3nc(-c4ccccc4)c(-c4ccccc4)o3)C[C@@H](c3ccc(CO)cc3)O2)cc1)NO | – | inactive: 14.6% [at 8.44 µM]
7 | COc1ccc(-c2ccc3c(N4CCOCC4)nc(N4C[C@@H](C)O[C@@H](C)C4)nc3n2)cc1CO | inconclusive: 1.31 µM [inhibitor, full curve] | –
8 | COC(=O)[C@@H]1CC2=CC(=O)CC[C@]2(C)[C@@]23O[C@@H]2C[C@@]2(C)[C@@H](CC[C@@]24CCC(=O)O4)[C@H]13 | inactive | –
9 | O=C(Nc1cccc(C(F)(F)F)c1)Nc1cc(S(=O)(=O)NC2CC2)ccc1-c1ccsc1 | inconclusive: 41.5 µM [inhibitor, single point] | –
10 | CC/C(=C(/CC)c1ccc(O)cc1)c1ccc(O)cc1 | inactive | –
11 | c1ccc(CNc2nc(NCc3ccccc3)c3ccccc3n2)cc1 | active: 26.2 µM | –
12 | C#Cc1cccc(Nc2ncnc3cc(OCCOC)c(OCCOC)cc23)c1 | inconclusive: 20.8 µM [inhibitor, partial curve] | –
13 | C[C@@H]1C[C@H]2[C@@H]3CCC4=CC(=O)C=C[C@]4(C)[C@@]3(F)[C@@H](O)C[C@]2(C)[C@@]1(O)C(=O)CO | inactive | –
14 | Cc1cc(SCc2sc(-c3ccc(C(F)(F)F)cc3)nc2C)ccc1OCC(=O)O | inactive | –
15 | C[C@H]1O[C@@H](O[C@H]2[C@@H](O)C[C@H](O[C@H]3[C@@H](O)C[C@H](O[C@H]4CC[C@@]5(C)[C@H](CC[C@@H]6[C@@H]5C[C@@H](O)[C@]5(C)[C@@H](C7=CC(=O)OC7)CC[C@]65O)C4)O[C@@H]3C)O[C@@H]2C)C[C@H](O)[C@@H]1O | active: 0.037 µM | –
16 | CC(N[C@H]1CCCC[C@H]1NC(=O)c1ccc(Cl)cc1)c1cccc2ccccc12 (stereo not given in full) | inconclusive: 41.5 µM [inhibitor, single point] | –
17 | CCOc1cc(N2CCC(O)CC2)ccc1Nc1ncc2c(n1)N(C)c1ccccc1C(=O)N2C | inconclusive: 10.4 µM [inhibitor, partial curve] | –
18 | COc1ccc(Nc2cc(-c3cnc(N)nc3)nc(N3CCOCC3)n2)cn1 | inconclusive: 1.04 µM [inhibitor, full curve] | –
19 | Nc1nc(Nc2ccc(S(N)(=O)=O)cc2)nn1C(=O)c1c(F)cccc1F | active: 4.15 µM | –
20 | CCN[C@H]1C[C@H](C)S(=O)(=O)c2sc(S(N)(=O)=O)cc21 | inactive | –

Row | Compound | Potency | activity change, negative = inhibition
21 | COc1cc2c(Nc3ccc(Br)cc3F)ncnc2cc1OCC1CCN(C)CC1 | inconclusive: 33 µM [inhibitor, partial curve] | –
22 | O=C1NC(=O)C(c2cnc3ccccn23)=C1c1cn2c3c(cccc13)CN(C(=O)N1CCOCC1)CC2 | inconclusive: 29.4 µM [inhibitor, partial curve] | –
23 | CCc1cc(Nc2nccc(-c3c(-c4ccc(OC)c(C(=O)Nc5c(F)cccc5F)c4)nc4ccccn34)n2)c(OC)cc1N1CCC(N2CCN(S(C)(=O)=O)CC2)CC1 | inconclusive: 5.23 µM [inhibitor, full curve] | –
24 | CC(C)n1cnc2c(NCCc3ccc(O)cc3)nc(-c3csc4ccccc34)nc21 | inconclusive: 41.5 µM [inhibitor, single point] | –
25 | NC1(C(=O)N[C@@H](CCO)c2ccc(Cl)cc2)CCN(c2ncnc3[nH]ccc23)CC1 | inconclusive: 4.15 µM [inhibitor, full curve, poor fit] | –
26 | C[C@@H]1C(=O)O[C@H]2CC34[C@H]5C[C@@H](C(C)(C)C)C36[C@H](OC(=O)[C@@H]6O)O[C@@]4(C(=O)O5)[C@]21O (stereo not given in full) | inactive | –
27 | Cc1ccc(C(N)=O)cc1Nc1nccc(-c2cn(C(C)C)c3cnccc23)n1 | active: 8.29 µM | –
28 | O=C(CCCCCCNC(=O)c1cnc(N(c2ccccc2)c2ccccc2)nc1)NO | inconclusive: 9.3 µM [inhibitor, partial curve] | –
29 | COc1cccc2c1C(=O)c1c(O)c3c(c(O)c1C2=O)C[C@@](O)(C(C)=O)C[C@@H]3O[C@H]1C[C@H](N)[C@H](O)[C@H](C)O1 | inconclusive: 0.587 µM [inhibitor, full curve, poor fit] | –
30 | COc1cc(/C=C/C(=O)CC(=O)/C=C/c2ccc(O)c(OC)c2)ccc1O | – | inconclusive: -60% [inhibitor]
31 | C=C1CC[C@@H]2[C@](C)(CO)[C@H](O)CC[C@@]2(C)[C@@H]1C/C=C1/C(=O)OC[C@H]1O | active: 11.7 µM | –
32 | COc1cccc2c(NCc3ccccc3)nc(-n3c(N)nc4ccccc43)nc12 | inconclusive: 16.5 µM [inhibitor, partial curve, poor fit] | –
33 | CCn1c(-c2nonc2N)nc2cnc(Oc3cccc(NC(=O)c4ccc(OCCN5CCOCC5)cc4)c3)cc21 | inconclusive: 11.7 µM [inhibitor, partial curve] | –
34 | CN1C(C(=O)Nc2ccccn2)=C(O)c2sc(Cl)cc2S1(=O)=O | inconclusive: 33 µM [inhibitor, partial curve, poor fit] | –
35 | C#Cc1cccc(Nc2ncnc3cc(OCCOC)c(OCCO)cc23)c1 | inconclusive: 14.7 µM [inhibitor, partial curve] | –
36 | CN(C)CCN(C)C(=O)c1ccc(NC(=O)Nc2ccc(-c3nc(N4CCOCC4)c4ccn(CC(F)(F)F)c4n3)cc2)cc1 | inconclusive: 0.104 µM [inhibitor, full curve, poor fit] | –
37 | C1CCC(C(CC2CCCCN2)C2CCCCC2)CC1 (stereo not given) | inconclusive: 29.4 µM [inhibitor, single point] | –
38 | COc1cc(Nc2ncc(F)c(Nc3ccc4c(n3)N(COP(=O)(O)O)C(=O)C(C)(C)O4)n2)cc(OC)c1OC | inconclusive: 8.29 µM [inhibitor, partial curve] | –
39 | Cc1ncc(-c2ccnc(Nc3ccc(S(C)(=O)=O)cc3)n2)n1C(C)C | active: 1.17 µM | –
40 | c1ccc2c(CCNc3ccc(Nc4ccncc4)cc3)c[nH]c2c1 | inconclusive: 13.1 µM [inhibitor, partial curve, poor fit] | –

Source: PubChem BioAssay (NCATS)
